# From PubChem BioAssay AID1768 (National Center for Advancing Translational Sciences (NCATS), 2009)
# Out of some 270,000 compounds screened, about 620 (0.23%) were called active. This list was built around the results that the source calls inconclusive (neither active nor inactive); the mix of calls is not that of the screen. The call rests on the fitted dose curve; in most records, active means well fitted inhibition curve with a large enough effect in the polarisation, with a control signal flat (not every such curve was filed as active); inconclusive means small, poorly fitted or top-dose-only effect, or effect the other way, or a change in a side signal; inactive means no such curve, though single readings can be large or run the other way; the % refers to the polarisation. A potency beside an inconclusive call is a rough fit, not a confirmed value. “Side channel” marks fits to a control or component signal instead of the main read-out.
# Biological target: Menin (Homo sapiens) (UniProt O00255)
# Experiment: qHTS Assay for Inhibitors Targeting the Menin-MLL Interaction in MLL Related Leukemias: Competition With Texas Red Labeled MLL-derived Mutant Peptide; on FP activity change, negative = inhibition: % of control where 0% means no effect
# Details: fluorescence polarization; FP activity change, negative = inhibition: at 61.6 µM (top of the series)
# Potency means the concentration at half of the fitted maximal effect; tags describe the fitted curve by direction and shape or compound fluorescence and quenching.
# Sequence of UniProt O00255 (O00255 whole entry, looked up): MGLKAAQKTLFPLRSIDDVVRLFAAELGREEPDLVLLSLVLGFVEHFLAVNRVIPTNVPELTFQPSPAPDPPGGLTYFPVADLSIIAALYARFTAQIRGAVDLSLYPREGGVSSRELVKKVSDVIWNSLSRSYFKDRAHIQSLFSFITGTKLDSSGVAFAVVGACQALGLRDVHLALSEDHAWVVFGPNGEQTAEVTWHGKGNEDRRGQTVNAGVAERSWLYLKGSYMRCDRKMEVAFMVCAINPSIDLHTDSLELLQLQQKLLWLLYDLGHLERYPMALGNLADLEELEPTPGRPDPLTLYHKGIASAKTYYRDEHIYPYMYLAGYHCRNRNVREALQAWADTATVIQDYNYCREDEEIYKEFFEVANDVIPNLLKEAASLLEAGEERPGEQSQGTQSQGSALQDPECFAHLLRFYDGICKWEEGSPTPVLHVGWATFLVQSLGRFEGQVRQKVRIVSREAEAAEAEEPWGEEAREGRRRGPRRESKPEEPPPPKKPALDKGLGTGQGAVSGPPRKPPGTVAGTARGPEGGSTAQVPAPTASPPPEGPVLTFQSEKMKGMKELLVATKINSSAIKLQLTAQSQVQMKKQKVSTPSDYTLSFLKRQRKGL
SMILES,Potency,"FP activity change, negative = inhibition"
CCC(Sc1nc2ncccc2[nH]1)C(=O)NC1CCC(C)CC1 (stereo not given),"inconclusive: 17.8 µM [inhibitor, partial curve]",
O=C(N/C(=C/c1ccco1)C(=O)N1CCCC1)c1cccs1,"inconclusive: 8.91 µM [inhibitor, partial curve]",
CCN(CC)S(=O)(=O)c1ccc2oc(Nc3ccccc3)nc2c1,"inconclusive: 22.4 µM [quencher, side channel, partial curve]",
CCOc1ccc(N(CC(=O)Nc2ccc(Br)cc2)S(C)(=O)=O)cc1,"inconclusive: 22.4 µM [quencher, side channel, single point]",
O=[N+]([O-])c1ccc(C2Oc3ccccc3C3CC(c4ccccc4)=NN32)s1 (stereo not given),"inconclusive: 17.8 µM [quencher, side channel, partial curve]",
CCOC(=O)C1C(=O)C=C(c2ccc(NS(C)(=O)=O)cc2)CC1c1ccco1 (stereo not given),"inconclusive: 31.6 µM [quencher, side channel, single point]",
O=c1c2ccccc2c(/C=N/n2cnnc2)c(O)n1-c1ccccc1F,"inconclusive: 39.8 µM [quencher, side channel, single point]",
CCOC(=O)N1CCN(c2ncnc3c2oc2nc(C(C)C)c4c(c23)CCC4)CC1,"inconclusive: 6.31 µM [quencher, side channel, full curve]",
O=[N+]([O-])c1ccc(O)c(/C=N/NC2=NS(=O)(=O)c3ccccc32)c1,"inconclusive: 14.1 µM [quencher, side channel, partial curve]",
CCCc1ccc(OCc2ccc(C(=O)N3CCCC3)o2)cc1,"inconclusive: 12.6 µM [fluorescent, side channel, partial curve]",
COc1cccc(C(=O)NC2CC3CCCC(C2)N3CC(=O)Nc2ccc(N(C)C)cc2)c1 (stereo not given),"inconclusive: 39.8 µM [inhibitor, single point]",
COC(=O)C1=CN(Cc2ccc(OC)cc2)C=C(C(=O)OC)C1c1cc(OC)c(OC)c(OC)c1,"inconclusive: 2.51 µM [fluorescent, side channel, full curve]",
O=C(O)c1ccc2c3c(ncnc13)-c1ccccc1C2=O,inactive,
CC(=O)c1cccc(Nc2nc(-c3ccccc3)nc3ccccc23)c1,"inconclusive: 2 µM [quencher, side channel, full curve]",
CCN(CC)CCNC(=O)CCc1c(C)nc2c(c(C)nn2-c2ccc(C)c(C)c2)c1C,"inconclusive: 35.5 µM [inhibitor, single point]",
Cc1cc(N2CCOCC2)nc2ccc(NC(=O)CCC(=O)N3CCC(C)CC3)cc12,"inconclusive: 3.16 µM [inhibitor, full curve, poor fit]",
Cc1ccc(C(=O)Nc2cccc(-c3cnc4ccccc4n3)c2)cc1,"inconclusive: 20 µM [quencher, side channel, single point]",
CCCCn1c(-c2cccnc2)nc2cc3[nH]c(=O)c(C(C)C)nc3cc21,"inconclusive: 25.1 µM [inhibitor, single point]",

SMILES,Potency,"FP activity change, negative = inhibition"
Cc1ccc2nc(-c3ccc(NC(=O)CCS(=O)(=O)c4ccccc4)cc3)sc2c1,inactive,
CC1CCN(c2nc3c(cc2C#N)COC(C)(C)C3)CC1,"inconclusive: 15.8 µM [fluorescent, side channel, partial curve]",
COc1ccccc1N1CCN(C(=O)c2ccc(-c3ccccc3)cc2)CC1,"inconclusive: 12.6 µM [fluorescent, side channel, partial curve]",
CC(C)C(=O)Nc1ccc(Sc2ccc(F)cc2)cc1,"inconclusive: 35.5 µM [inhibitor, single point]",
Cc1cc(NC(=O)CCC(=O)N(Cc2ccco2)C2(C(=O)NC3CCCCC3)CCCC(C)C2)no1 (stereo not given),"inconclusive: 22.4 µM [inhibitor, partial curve]",
OCCN1CCN(c2nc(-c3ccccc3)c3cc(Br)ccc3n2)CC1,"inconclusive: 12.6 µM [fluorescent, partial curve]",
CCN(CC)c1ccc(NC(=O)CN2CCN(c3ccccn3)CC2)cc1,"inconclusive: 17.8 µM [fluorescent, side channel, partial curve]",
COC(=O)CSc1nc2ccc(N)cc2s1,"inconclusive: 28.2 µM [quencher, side channel, partial curve]",
O=[N+]([O-])CC(=Nc1ccc(Cl)cc1)N/N=C\c1oc(O)c2ccccc12,"inconclusive: 25.1 µM [quencher, side channel, partial curve]",
c1ccc2c(c1)nc(Nc1ccc3c(c1)OCO3)c1nnnn12,"inconclusive: 22.4 µM [quencher, side channel, single point]",
COc1ccc(OCCNS(=O)(=O)c2ccc3oc4ccccc4c3c2)cc1,"inconclusive: 28.2 µM [inhibitor, single point]",
C=CC1=C2C=C(C3CC3)N(Cc3ccc4c(c3)OCO4)C=C2C(=O)C(C)(OC(=O)c2ccco2)C1=O (stereo not given),,inactive: -14% [at 11.7 µM]
COc1ccc2ccccc2c1/C=N/NC(=O)c1ccc(C)nc1,"inconclusive: 2.82 µM [inhibitor, full curve, poor fit]",
CCN(CC)C(=O)CSc1nc2cc3c(cc2c(=O)n1CCCC(=O)NCc1ccc(OC)cc1)OCO3,"inconclusive: 10 µM [fluorescent, side channel, full curve]",
Cc1cccc(OCC(=O)Nc2ccc(C(=O)c3ccc(C(=O)O)cc3)cc2)c1,"inconclusive: 12.6 µM [quencher, side channel, partial curve]",
COc1ccc(OC)c(NC(=O)Cc2c(C(=O)O)n(C)c3ccccc23)c1,"inconclusive: 22.4 µM [quencher, side channel, partial curve, poor fit]",
COc1cccc(C2=NOC(C(=O)N3CCN(Cc4ccccc4)CC3)C2)c1OC (stereo not given),"inconclusive: 22.4 µM [fluorescent, side channel, partial curve]",
